Data as given in article PMC4336329 (PLoS ONE, 2015).
The campaign covered roughly 310,000 compounds. About 14,000 (4.5%) showed an effect of 50% or more. The effect is printed as a negative number. The list shows a part of the results.

What follows are molecules tested against human ether-à-go-go-related gene (hERG) potassium channel (human, UniProt Q12809) (assay: primary screen, population patch clamp on CHO cells stably expressing hERG).
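Also: peak tail current of the secondary pulse compared with the same well before compound.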

Chain of human ether-à-go-go-related gene (hERG) potassium channel (Q12809 whole entry, looked up): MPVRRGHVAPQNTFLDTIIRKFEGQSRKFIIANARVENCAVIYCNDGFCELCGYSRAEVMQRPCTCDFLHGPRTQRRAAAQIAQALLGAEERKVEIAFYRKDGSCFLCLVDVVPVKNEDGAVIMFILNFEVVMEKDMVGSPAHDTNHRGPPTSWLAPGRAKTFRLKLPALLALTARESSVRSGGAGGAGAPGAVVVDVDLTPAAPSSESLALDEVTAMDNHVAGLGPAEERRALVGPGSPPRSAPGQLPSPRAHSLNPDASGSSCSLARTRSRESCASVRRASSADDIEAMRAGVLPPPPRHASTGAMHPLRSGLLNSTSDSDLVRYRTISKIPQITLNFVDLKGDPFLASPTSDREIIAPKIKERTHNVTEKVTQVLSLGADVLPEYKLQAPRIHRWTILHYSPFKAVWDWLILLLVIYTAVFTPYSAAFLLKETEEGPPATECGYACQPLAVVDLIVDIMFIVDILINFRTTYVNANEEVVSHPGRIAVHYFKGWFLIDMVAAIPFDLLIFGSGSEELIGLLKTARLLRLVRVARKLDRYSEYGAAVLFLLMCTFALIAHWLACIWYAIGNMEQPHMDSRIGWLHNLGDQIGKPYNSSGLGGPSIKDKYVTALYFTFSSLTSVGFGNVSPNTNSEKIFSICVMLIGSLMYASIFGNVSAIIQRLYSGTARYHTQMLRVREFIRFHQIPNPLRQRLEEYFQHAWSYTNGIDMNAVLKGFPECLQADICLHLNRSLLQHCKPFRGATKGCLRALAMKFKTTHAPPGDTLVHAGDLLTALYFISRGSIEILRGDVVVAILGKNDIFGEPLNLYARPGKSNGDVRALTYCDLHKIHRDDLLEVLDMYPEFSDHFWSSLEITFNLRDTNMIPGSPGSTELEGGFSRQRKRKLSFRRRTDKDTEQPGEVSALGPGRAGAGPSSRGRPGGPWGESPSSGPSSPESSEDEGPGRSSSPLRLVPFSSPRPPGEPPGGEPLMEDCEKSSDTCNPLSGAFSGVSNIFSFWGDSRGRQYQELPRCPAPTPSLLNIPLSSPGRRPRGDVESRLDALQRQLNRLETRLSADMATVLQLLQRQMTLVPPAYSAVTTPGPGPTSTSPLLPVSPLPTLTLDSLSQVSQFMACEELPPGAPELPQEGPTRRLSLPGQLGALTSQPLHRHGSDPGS

| SMILES | hERG current change (%, negative = inhibition) at 10uM [%] |
| --- | --- |
| Cc1ccc(S(=O)(=O)NCCC(=O)Nc2ccc(C)cc2C(=O)c2ccccc2)cc1 | -38.1 |
| O=C(Nc1nc(-c2ccccn2)cs1)c1ccc(F)c(S(=O)(=O)N2CCOCC2)c1 | -25.3 |
| O=C(Nc1ccc(NC(=O)c2ccccc2F)cc1)c1ccccc1F | 7.72 |
| CC(=O)c1c(C)oc2ccc(N(C(C)=O)S(=O)(=O)c3ccc(Br)cc3)cc12 | -2.27 |
| CCOC(=O)C1C(=O)CC(C)(O)C(C(=O)OCC)C1c1ccc2c(c1)OCO2 (stereo not shown) | -3.89 |
| S=C(Nc1ccc(Br)cc1)NC1CCCCC1 | 13.3 |
| Cc1cc(=O)n2c3ccccc3n(CC(O)CN3CCCCC3)c2c1C#N (stereo not shown) | -53.2 |
| NNc1ccc2c(C(F)(F)F)cc(C(F)(F)F)nc2n1 | 5.69 |
| CCOC(=O)c1cnn(-c2cc(C)cc(C)c2)c1N | 20.4 |
| Cc1ccccc1OCCNC(=O)c1ccco1 | 24.5 |
| CCc1ccc2oc(C(=O)NCC(c3ccc(OC)cc3)N3CCCCC3)c(C)c2c1 (stereo not shown) | -3.57 |
| COCCn1nnnc1C(c1ccccn1)N1CCN(c2cc(Cl)ccc2C)CC1 (stereo not shown) | -36.7 |
| Cc1cc(C)cc(N2C(=O)C3CC=CCC3C2=O)c1 (stereo not shown) | 5.66 |
| O=C(O)C1CCCC[C@H]1C(=O)Nc1ncc([N+](=O)[O-])s1 (stereo partly shown) | 7.72 |
| Cc1cccnc1Nc1nc(-c2ccc(O)cc2)cs1 | 1.89 |
| O=c1oc2ccc(Br)cc2cc1-c1nc2ccccc2o1 | 8.26 |
| COc1ccc(CC(=O)N(c2ccccc2)c2nc(C)cs2)cc1 | -43.3 |
| COc1cccc(CC(=O)N2CCC(CCC(=O)Nc3cccc(OC)c3)CC2)c1 | -17.8 |
| Cc1c(NC(=O)COC(=O)c2cc(-c3ccc(-c4ccccc4)cc3)nc3ccccc23)c(=O)n(-c2ccccc2)n1C | 28.4 |
| CC1=C[C@H]2OC(=O)[C@@H](C)[C@H]2C[C@@H]2[C@H]1C[C@@H](O)[C@@]2(C)O | 6.22 |
| CCN(CC(=O)NCc1ccc(F)cc1)C(=O)c1ccc(C)o1 | 6.13 |
| CN1c2ccccc2Oc2nnc(N3CCN(Cc4ccccc4)CC3)cc21 | -78 |

| SMILES | hERG current change (%, negative = inhibition) at 10uM [%] |
| --- | --- |
| CN(C)C(=O)NC(O)C(Cl)Cl (stereo not shown) | -2 |
| CC(NC(=O)c1ccco1)C(=O)N(C)Cc1ccc(C(F)(F)F)cc1 (stereo not shown) | 0.665 |
| CC(C)CC(=O)Nc1cccc(-c2nc3ncccc3o2)c1 | -18.6 |
| CCOC(=O)c1nnn(CC(=O)Nc2ccccc2OC)c1C(=O)OCC | 6.59 |
| CC(=O)N1CCN(c2ccc([N+](=O)[O-])cc2C#N)CC1 | -88 |
| CCC(C)C(NC(=O)OCc1ccccc1)C(=O)NCC(c1ccccc1)N(C)C (stereo not shown) | -7.1 |
| COc1ccc(-c2nc(SCC(=O)NCc3ccco3)c(-c3ccccc3)[nH]2)cc1OC | 4.94 |
| COC(=O)c1cc2sccc2n1Cc1ccc(C)cc1 | 8.64 |
| CCN(C(=O)COC(=O)c1ccc(C)c(S(=O)(=O)N2CCCCC2)c1)C1CCS(=O)(=O)C1 (stereo not shown) | -66.5 |
| Cc1ccc(C)c2c1cc(C)c1nnc(SCC(=O)Nc3cccc(C(=O)O)c3)n12 | 23.4 |
| Cc1cc(C)nc(NS(=O)(=O)c2ccc(N3C(=O)C4CCCCC4C3=O)cc2)n1 (stereo not shown) | 21.6 |
| CCCCCCSc1nsc(N)n1 | -10.8 |
| CC1CC(C)CN(C(=O)CCCNC(=O)c2ccc(Cl)cc2)C1 (stereo not shown) | -23.6 |
| CCCn1c(SCC(=O)N2CCN(S(=O)(=O)c3ccc(Cl)cc3)CC2)n[nH]c1=O | -11 |
| Cc1ccc(NC(=S)N2CCC(NC(=O)c3ccccc3)CC2)cc1 | -14.5 |
| CCN(CC)CCn1c(NS(=O)(=O)c2ccc(Cl)cc2)nc2ccccc21.Cl | -69.8 |
| O=c1c2ccccc2nc(-c2ccoc2)n1-c1ccccc1 | -8.85 |
| CCn1cc(/C=N/NS(=O)(=O)c2ccc(C)cc2)c(C)n1 | 0.665 |
| CCO[C@H]1OC(C(=O)N2CCCCCCC2)=C[C@@H](C)[C@@H]1CCCO | 3.15 |
| CN(Cc1ccccc1F)C(=O)c1ccc(NS(=O)(=O)c2ccc3[nH]c(=O)[nH]c3c2)cc1 | 6.14 |
| CC(Nc1ccc(Cl)cc1)C(=O)NN (stereo not shown) | -5.86 |
| CCCCCCNCCn1cnc2c(N)ncnc21 | -38 |

| SMILES | hERG current change (%, negative = inhibition) at 10uM [%] |
| --- | --- |
| CNc1oc(-c2ccc(Cl)cc2)nc1C#N | -4.17 |
| COc1ccc(S(=O)(=O)N2CCCCC2)cc1NC(=O)CSc1nccn1C | -5.73 |
| CCN(CC)S(=O)(=O)c1cc(C)ccc1NC(=S)Nc1cccnc1 | -6.33 |
| Cc1ccc(C=C2C(=O)c3ccccc3C2=O)o1 | 16.9 |
| CC(C)(C)c1csc(NC(=O)c2cccnc2)n1 | 13.6 |
| CCC(c1nnc(SCC(=O)N(C)c2ccccc2)n1Cc1ccccc1)N(C)C (stereo not shown) | 10.5 |
| COc1ccc(NC(=O)C23CCC(C)(C(=O)C2)C3(C)C)cc1 (stereo not shown) | 6.31 |
| OC[C@H]1O[C@H](OCc2ccccc2)[C@H](O[C@@H]2OC[C@@H](O)[C@H](O)[C@H]2O)[C@@H](O)[C@@H]1O | 23.8 |
| Cc1cc(C(=O)Nc2ccc(CC(=O)O)cc2)c(C)o1 | 15.6 |
| O=C(Nc1cccc(F)c1)N1C2CCC1CC(O)(c1cccnc1)C2 (stereo not shown) | 24.1 |
| Cc1ccc(C(=O)NCCc2nnc3ccc(SCC(=O)NCc4ccc(F)cc4)nn23)cc1 | -7.49 |
| COc1ccc(/C=C/C(=O)NCC(=O)N/N=C(/C)c2ccc(Cl)cc2)cc1 | 9.47 |
| COc1ccc(S(=O)(=O)N(CCc2ccccc2)CC(=O)O)cc1 | -0.622 |
| C=CCn1c(=S)[nH]c2ccccc2c1=O | 3.65 |
| COc1ccc(OC)c(C(C(=O)NC2CCCCC2)N(Cc2ccco2)C(=O)c2ccccn2)c1 (stereo not shown) | -1.41 |
| CCO[C@H]1OC(C(=O)NCc2nc3ccccc3[nH]2)=C[C@@H](c2csc3ccccc23)[C@@H]1CCCO | -12.2 |
| COc1ccc(C(=O)NCc2nnc(SC)n2Cc2ccccc2)cc1 | 0.866 |
| CCC(=O)Oc1ccc2oc(=O)cc(C)c2c1 | 5.91 |
| O=C(c1cccc([N+](=O)[O-])c1)N1CCN(c2ccccn2)CC1 | -4.05 |
| O=C(O)c1ccc(N2C(=O)c3cccc4c(C(=O)O)ccc(c34)C2=O)cc1 | 15 |
| CC(C)c1nc(CNC(=O)CC2C(=O)NCCN2Cc2cccc(F)c2F)cs1 (stereo not shown) | -5.55 |
| Brc1ccc(-c2nn3c(-c4ccco4)nnc3s2)o1 | -29.2 |

| SMILES | hERG current change (%, negative = inhibition) at 10uM [%] |
| --- | --- |
| CCOC(=O)C1CCN(C(=O)C2(NC(=O)Nc3ccccc3Cl)CCCCC2)CC1 | -8.52 |
| COC(=O)[C@H]1[C@@H](C)N(CCc2cc(OC)c(OC)c(OC)c2)C(=O)N[C@H]1c1ccccc1 | -6.01 |
| CCc1nnc(NS(=O)(=O)c2ccc(N)cc2)s1 | 10.6 |
| O=C(Nc1ccc(F)cc1F)C1CCN(C(=O)c2ccc(Br)cc2)CC1 | -30.2 |
| COc1ccccc1OCC(=O)Nn1c(=S)[nH]c2ncccc2c1=O | 19.1 |
| COc1ccc(-c2nc3c(n2O)CCC/C3=N\O)cc1 | 7.98 |
| Cc1cc(N=Cc2cc(Cl)ccc2O)no1 | -6.77 |
| CN(CC(=O)Nc1ccccc1F)CC(=O)Nc1ccc(F)c(F)c1F | 17.1 |
| N#Cc1cnn(Cc2ccccc2)c1/N=C/N1CCOCC1 | -11.3 |
| Cc1cc(C)cc(N(CC(=O)N2CCN(Cc3ccccc3)CC2)S(=O)(=O)c2c(C)noc2C)c1 | 1.23 |
| N#Cc1ccc(S(=O)(=O)N2CCCN(c3nc4ccc(Cl)cc4s3)CC2)cc1 | -70.3 |
| CCn1cc(C(=O)NCC2CCCO2)c(=O)c2cc(S(=O)(=O)N3CCCCCC3)ccc21 (stereo not shown) | -51.3 |
| O=C(COc1ccccc1)NCC(=O)N/N=C/c1ccc(Cl)cc1 | -7.97 |
| COC(=O)c1ccccc1NC(=O)CSc1nc(Nc2ccccc2)nc(N2CCOCC2)n1 | 3.6 |
| CNC(=O)CSc1nc2cccnc2n1C1CCCCC1 | 12 |
| CCc1nc(C)cc2c1sc1ccccc12.Cl | 3.2 |
| CC(C)CC(=O)N1CC(=O)Nc2ccc(F)cc2C1c1ccccc1 (stereo not shown) | 0.0422 |
| CC(C)c1nc2sc3c(=O)[nH]cnc3c2c2c1CCC2 | 4.7 |
| CN(C)/C=C/c1oc2ccc(O)cc2c1[N+](=O)[O-] | 3.59 |
| Nc1ccccc1Sc1ccc(C(F)(F)F)cc1[N+](=O)[O-] | -4.06 |
| O=C(C1=C(O)C(=O)N(CCOCCO)C1c1cccs1)c1cccs1 (stereo not shown) | 5.59 |
| O=C(N/N=C/c1cn[nH]c1-c1ccc(Cl)cc1)c1ccc([N+](=O)[O-])cc1 | -51.5 |
